Assay results taken from patent publication US20240408055A1 (priority 2021, published 2024).
pEC50: −log10 of the molar value.

Target: T1, human Neuropilin-1 (NRP1) receptor (Homo sapiens, UniProt O14786)
T1 construct: purchased Elabscience
T1 sequence (O14786 22-641 limits assumed): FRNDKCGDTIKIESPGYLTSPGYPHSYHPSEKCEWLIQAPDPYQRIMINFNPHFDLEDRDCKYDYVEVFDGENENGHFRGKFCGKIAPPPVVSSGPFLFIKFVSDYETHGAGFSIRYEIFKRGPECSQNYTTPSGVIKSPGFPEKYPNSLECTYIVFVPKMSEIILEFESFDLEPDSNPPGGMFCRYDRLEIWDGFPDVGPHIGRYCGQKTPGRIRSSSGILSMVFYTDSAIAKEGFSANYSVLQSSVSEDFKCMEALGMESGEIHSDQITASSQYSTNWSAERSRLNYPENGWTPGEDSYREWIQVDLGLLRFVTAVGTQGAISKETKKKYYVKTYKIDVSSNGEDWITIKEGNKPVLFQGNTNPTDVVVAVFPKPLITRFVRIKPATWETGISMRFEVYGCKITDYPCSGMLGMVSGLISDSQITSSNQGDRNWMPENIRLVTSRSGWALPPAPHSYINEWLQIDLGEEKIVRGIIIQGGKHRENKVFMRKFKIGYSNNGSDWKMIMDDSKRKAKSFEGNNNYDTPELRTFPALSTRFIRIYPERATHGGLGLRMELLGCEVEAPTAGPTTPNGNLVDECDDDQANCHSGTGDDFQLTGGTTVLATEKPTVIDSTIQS

In the case of `C=C1C(=O)OC2/C=C(/C)CC/C=C(\C(=O)O)CC/C=C(\C)CCC12` (stereo not shown) [Anisomelic acid], the pEC50 was ~4.56.
